Compound in this test: CC1Cc2ccccc2N1C(=O)C1CCCN(C1)C(=O)CCl (mixture of isomers) [TRIM25 ligand 11 (diastereomer mixture)]
The experiment in a line: probe-labelled cysteine peptide fold change vs DMSO (competition) (log2 fold change); higher = less target engagement (more negative = stronger competition). The note with it: THP-1, incubation time: 4 h.

About 21,000 targets were measured; listed, in parts, are those with the largest changes and a random draw of the rest.
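Further: competitive chemoproteomic profiling in live THP-1 cells with an iodoacetamide desthiobiotin (IA-DTB) probe, comparing probe-labelled peptide intensities in compound-treated cells against DMSO-treated controls.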

Consider “CAPZB_P47756_62_DYLLCDYNRDGDSYR (UniProt P47756)”, for which the “probe-labelled cysteine peptide fold change” value reads like this: (10 µM) -0.649; (50 µM) -0.535.

As for “CLUH_O75153_551_HQVLNDRDEEVELCSSVECK (UniProt O75153)”, the “probe-labelled cysteine peptide fold change” value by setting is: (10 µM) -0.0322; (50 µM) -0.0386.

As to “CIAO1_O76071_271_TIYDIAWCQLTGALATACGDDAIR (UniProt O76071)”, the “probe-labelled cysteine peptide fold change” value (10 µM) was -0.17 and the “probe-labelled cysteine peptide fold change” value (50 µM) is -0.0985.

“CINP_Q9BW66_120_GICELENYHYGEESK (UniProt Q9BW66)”: the “probe-labelled cysteine peptide fold change” value runs as follows: (10 µM) -0.202; (50 µM) -0.0294.

In the case of “CD4_P01730_41_KGDTVELTCTASQK (UniProt P01730)”, the “probe-labelled cysteine peptide fold change” value by setting is: (10 µM) -0.0702; (50 µM) -0.14.

Regarding “CHM_P24386_406_HSVQCLVVDK (UniProt P24386)”, the “probe-labelled cysteine peptide fold change” value was 0.0368 (10 µM) and 0.211 (50 µM).

On to “CNBP_P62633_158_TSEVNCYR (UniProt P62633)”, for which the “probe-labelled cysteine peptide fold change” value (10 µM) was -0.0696 and the “probe-labelled cysteine peptide fold change” value (50 µM) was -0.0473.

Take “CAMK2D_Q13557_7_ASTTTCTR (UniProt Q13557)”: the “probe-labelled cysteine peptide fold change” value runs as follows: (10 µM) 0.604; (50 µM) 0.645.

As for “CNBP_P62633_150_CGETGHVAINCSK (UniProt P62633)”, the “probe-labelled cysteine peptide fold change” value reads like this: (10 µM) -0.0611; (50 µM) -0.112.

With “CANX_P27824_194_TPYTIMFGPDKCGEDYK (UniProt P27824)”, the “probe-labelled cysteine peptide fold change” value is -0.644 (10 µM) and -0.569 (50 µM).

As for “COPE_O14579_148_ALHQGDSLECTAMTVQILLK (UniProt O14579)”, the “probe-labelled cysteine peptide fold change” value is, setting by setting: (10 µM) 0.065; (50 µM) 0.0508.

Turning to “BRIX1_Q8TDN6_158_MTGNCLK (UniProt Q8TDN6)”, the “probe-labelled cysteine peptide fold change” value (10 µM) stood at 0.00674 and the “probe-labelled cysteine peptide fold change” value (50 µM) is -0.00131.

Consider “CDK6_Q00534_280_CLTFNPAK (UniProt Q00534)”, for which the “probe-labelled cysteine peptide fold change” value reads like this: (10 µM) -0.0529; (50 µM) -0.0366.

For “CCT5_P48643_302_ETGANLAICQWGFDDEANHLLLQNNLPAVR (UniProt P48643)”, the “probe-labelled cysteine peptide fold change” value reads like this: (10 µM) 0.148; (50 µM) 0.00759.

For the target “CDC27_P30260_115_SHDDIVTEFGDSACFTLSLLGHVYCK (UniProt P30260)”, the “probe-labelled cysteine peptide fold change” value was 0.122 (10 µM) and -0.0262 (50 µM).

Regarding “CCAR2_Q8N163_644_PRGEASEDLCEMALDPELLLLR (UniProt Q8N163)”, the “probe-labelled cysteine peptide fold change” value runs as follows: (10 µM) 0.562; (50 µM) 0.0439.

Turning to “CCT5_P48643_440_CPTLEQYAMR (UniProt P48643)”, the “probe-labelled cysteine peptide fold change” value reads like this: (10 µM) 0.0206; (50 µM) -0.0638.

“CHD8_Q9HCK8_1116_EACHIIPHDFHLQAMVR (UniProt Q9HCK8)”: the “probe-labelled cysteine peptide fold change” value was 0.00656 (10 µM) and 0.0672 (50 µM).

Turning to “CDKL5_O76039_152_LCDFGFAR<|>PRKD3_Q00532_719_LCDFGFAR<|>CDKL1_Q15139_144_LCDFGFAR<|>PRKD1_Q9BZL6_726_LCDFGFAR<|>CDKL3_Q9NRP7_142_LCDFGFAR (UniProt Q9NRP7+Q9BZL6+Q15139+Q00532+O76039)”, the “probe-labelled cysteine peptide fold change” value (10 µM) stood at 0.129 and the “probe-labelled cysteine peptide fold change” value (50 µM) came to 0.157.

For the target “CARD19_Q96LW7_7_TDQTYCDR (UniProt Q96LW7)”, the “probe-labelled cysteine peptide fold change” value is, setting by setting: (10 µM) 0.557; (50 µM) 0.449.

On to “COPE_O14579_212+225_CSPTLLLLNGQAACHMAQGR (UniProt O14579)”, for which the “probe-labelled cysteine peptide fold change” value was -0.157 (10 µM) and -0.292 (50 µM).

Regarding “CNBP_P62633_97+101_EQCCYNCGKPGHLAR (UniProt P62633)”, the “probe-labelled cysteine peptide fold change” value was -0.137 (10 µM) and -0.214 (50 µM).

With “CNOT6L_Q96LI5_283_KHVDGCAIFFK (UniProt Q96LI5)”, the “probe-labelled cysteine peptide fold change” value (10 µM) was -0.024 and the “probe-labelled cysteine peptide fold change” value (50 µM) was -0.00294.

As to “CCDC97_Q96F63_17_GCIEPGPGHWGELSR (UniProt Q96F63)”, the “probe-labelled cysteine peptide fold change” value is -0.118 (10 µM) and -0.218 (50 µM).

“CNN2_Q99439_215_CASQVGMTAPGTRR (UniProt Q99439)”: the “probe-labelled cysteine peptide fold change” value reads like this: (10 µM) -0.451; (50 µM) -0.761.

Consider “COG1_Q8WTW3_72_CAVGLVDAVK (UniProt Q8WTW3)”, for which the “probe-labelled cysteine peptide fold change” value (10 µM) turned out to be 0.0562 and the “probe-labelled cysteine peptide fold change” value (50 µM) was 0.0762.

Regarding “CMSS1_Q9BQ75_121_RLVIELEELNLPDSCFLK (UniProt Q9BQ75)”, the “probe-labelled cysteine peptide fold change” value is -0.0113 (10 µM) and -0.228 (50 µM).

On to “CIC_Q96RK0_506_SSFTHCRPPLDPEPPGPPDPPVAFGK (UniProt Q96RK0)”, for which the “probe-labelled cysteine peptide fold change” value (10 µM) was found to be 0.0115 and the “probe-labelled cysteine peptide fold change” value (50 µM) was -0.206.

With “CDC42_P60953_105_EKWVPEITHHCPK (UniProt P60953)”, the “probe-labelled cysteine peptide fold change” value is -0.809 (10 µM) and -0.493 (50 µM).

“CNPY3_Q9BT09_104_LIEVTETICKR (UniProt Q9BT09)”: the “probe-labelled cysteine peptide fold change” value is, setting by setting: (10 µM) -0.0278; (50 µM) 0.271.

With “CLCC1_Q96S66_60_DVSPDLSCADEISECYHK (UniProt Q96S66)”, the “probe-labelled cysteine peptide fold change” value was -0.0136 (10 µM) and 0.0255 (50 µM).

Regarding “CAP1_Q01518_375_INSITVDNCKK (UniProt Q01518)”, the “probe-labelled cysteine peptide fold change” value by setting is: (10 µM) -0.103; (50 µM) -0.0313.

With “CD40_P25942_119_GTSETDTICTCEEGWHCTSEACESCVLHR (UniProt P25942)”, the “probe-labelled cysteine peptide fold change” value reads like this: (10 µM) 0.209; (50 µM) -0.592.

For the target “CHD4_Q14839_1468_HLCEPGADGAETFADGVPR (UniProt Q14839)”, the “probe-labelled cysteine peptide fold change” value (10 µM) turned out to be 0.106 and the “probe-labelled cysteine peptide fold change” value (50 µM) was -0.0347.

“CAPN7_Q9Y6W3_548_ESTCIHSTWDAK (UniProt Q9Y6W3)”: the “probe-labelled cysteine peptide fold change” value was 0.41 (10 µM) and 0.238 (50 µM).

Regarding “CAP1_Q01518_93_LERALLVTASQCQQPAENK (UniProt Q01518)”, the “probe-labelled cysteine peptide fold change” value (10 µM) came out at 0.167 and the “probe-labelled cysteine peptide fold change” value (50 µM) turned out to be 0.0735.

Turning to “CNBP_P62633_171_ECTIEATA (UniProt P62633)”, the “probe-labelled cysteine peptide fold change” value reads like this: (10 µM) -0.151; (50 µM) -0.101.

Take “COMP_P49747_371_GDACDDDIDGDR (UniProt P49747)”: the “probe-labelled cysteine peptide fold change” value by setting is: (10 µM) 0.938; (50 µM) 0.0976.

These data come from the supplement of paper PMC12067093, “Discovery and optimisation of a covalent ligand for TRIM25 and its application to targeted protein ubiquitination” (Chemical Science, 2025).
